Where two headings read alike, the source gives them in different places. No constants are given. Whether binding was seen depends on the method and setting. In cells and extracts the contact can be indirect. Some entries that bind do so weakly or less than the wild type. One block for each molecule: values may come before it.
Columns and labels:
[1] = biological target: Flag-EGFP-SGF29-R207P (human) (UniProt Q96ES7); test: co-IP; anti-Flag M2 affinity gel on lysates in 0.3% CHAPS, 40 mM HEPES pH 7.5, 1 mM EDTA, 120 mM NaCl, 4 °C overnight; elution with Flag peptides; immunoblot of endogenous partners; methods: transfected HEK293T, legend of Fig. 5d: hMPCs
[2] = biological target: Flag-EGFP-SGF29-WT (human) (UniProt Q96ES7); test: as above
[3] = biological target: T1, mediator of RNA polymerase II transcription subunit 4 (MED4) (human (endogenous in HEK293T)) (UniProt Q9NPJ6); test: co-IP; reverse co-IP using MED4 antibody for immunoprecipitation; endogenous proteins
T1 sequence: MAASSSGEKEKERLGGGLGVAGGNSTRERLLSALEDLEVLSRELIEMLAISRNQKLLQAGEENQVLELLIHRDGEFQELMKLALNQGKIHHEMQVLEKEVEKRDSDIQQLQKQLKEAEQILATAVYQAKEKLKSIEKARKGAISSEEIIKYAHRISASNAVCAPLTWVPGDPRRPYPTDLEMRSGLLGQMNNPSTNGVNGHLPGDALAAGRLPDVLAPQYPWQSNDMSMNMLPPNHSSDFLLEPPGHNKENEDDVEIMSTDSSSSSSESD

The chains behind the UniProt entries cited, without tags or fusion partners. Where a name states a change or a piece, a line headed by the entry shows the natural chain unless it says otherwise. A line that says so, or that is headed by a name, gives the form on record, which may keep a tag or linker. Residues count along the entry.
UniProt Q96ES7: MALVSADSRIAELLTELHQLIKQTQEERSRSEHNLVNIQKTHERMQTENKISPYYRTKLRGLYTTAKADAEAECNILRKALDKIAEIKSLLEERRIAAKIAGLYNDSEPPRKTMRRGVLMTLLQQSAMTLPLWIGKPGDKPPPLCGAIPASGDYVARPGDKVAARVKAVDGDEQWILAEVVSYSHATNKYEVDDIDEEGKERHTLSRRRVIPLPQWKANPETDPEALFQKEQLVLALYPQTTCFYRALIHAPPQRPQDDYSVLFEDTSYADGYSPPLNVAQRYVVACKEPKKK
SGF29-C-WT: residues 54-293 of Q96ES7
SGF29-C-D194A (Q96ES7, form named): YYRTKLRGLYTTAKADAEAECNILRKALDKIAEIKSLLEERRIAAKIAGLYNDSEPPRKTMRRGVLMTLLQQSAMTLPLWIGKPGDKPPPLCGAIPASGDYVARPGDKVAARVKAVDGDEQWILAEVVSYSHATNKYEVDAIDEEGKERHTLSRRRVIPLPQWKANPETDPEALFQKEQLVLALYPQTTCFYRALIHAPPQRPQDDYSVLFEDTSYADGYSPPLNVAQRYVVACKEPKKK
UniProt O75528: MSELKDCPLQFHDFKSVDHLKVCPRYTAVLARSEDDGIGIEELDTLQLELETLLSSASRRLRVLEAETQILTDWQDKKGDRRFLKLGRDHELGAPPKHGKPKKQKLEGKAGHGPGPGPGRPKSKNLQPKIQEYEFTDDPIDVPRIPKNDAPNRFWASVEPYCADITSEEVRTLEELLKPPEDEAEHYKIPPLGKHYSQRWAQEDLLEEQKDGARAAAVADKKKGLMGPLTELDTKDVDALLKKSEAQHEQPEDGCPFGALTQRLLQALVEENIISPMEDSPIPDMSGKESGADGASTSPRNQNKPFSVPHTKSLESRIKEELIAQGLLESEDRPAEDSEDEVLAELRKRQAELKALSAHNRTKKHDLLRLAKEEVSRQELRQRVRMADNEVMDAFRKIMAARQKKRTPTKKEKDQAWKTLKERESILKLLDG
UniProt Q92830: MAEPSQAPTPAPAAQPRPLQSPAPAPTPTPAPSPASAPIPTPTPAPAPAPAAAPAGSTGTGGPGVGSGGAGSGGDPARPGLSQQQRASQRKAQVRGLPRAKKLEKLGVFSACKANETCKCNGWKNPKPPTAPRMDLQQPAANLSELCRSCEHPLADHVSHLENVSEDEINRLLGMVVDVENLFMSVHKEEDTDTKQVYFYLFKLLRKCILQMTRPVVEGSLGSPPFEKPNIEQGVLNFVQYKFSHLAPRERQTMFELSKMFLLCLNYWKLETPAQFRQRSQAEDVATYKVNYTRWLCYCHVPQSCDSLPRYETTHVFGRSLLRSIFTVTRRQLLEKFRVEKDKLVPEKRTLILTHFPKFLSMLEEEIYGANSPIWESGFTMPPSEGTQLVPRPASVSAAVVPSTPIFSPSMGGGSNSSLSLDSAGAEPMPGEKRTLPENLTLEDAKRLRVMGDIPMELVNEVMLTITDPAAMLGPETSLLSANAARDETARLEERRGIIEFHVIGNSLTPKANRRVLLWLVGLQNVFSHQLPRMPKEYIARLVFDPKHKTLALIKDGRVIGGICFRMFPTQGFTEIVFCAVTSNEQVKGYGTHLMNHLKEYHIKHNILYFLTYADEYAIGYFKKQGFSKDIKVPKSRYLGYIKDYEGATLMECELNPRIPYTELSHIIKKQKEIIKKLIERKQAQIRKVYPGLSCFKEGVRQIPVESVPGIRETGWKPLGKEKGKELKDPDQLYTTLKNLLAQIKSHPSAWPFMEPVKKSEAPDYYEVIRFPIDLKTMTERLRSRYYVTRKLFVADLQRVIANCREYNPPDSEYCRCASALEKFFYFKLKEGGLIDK
UniProt P08047: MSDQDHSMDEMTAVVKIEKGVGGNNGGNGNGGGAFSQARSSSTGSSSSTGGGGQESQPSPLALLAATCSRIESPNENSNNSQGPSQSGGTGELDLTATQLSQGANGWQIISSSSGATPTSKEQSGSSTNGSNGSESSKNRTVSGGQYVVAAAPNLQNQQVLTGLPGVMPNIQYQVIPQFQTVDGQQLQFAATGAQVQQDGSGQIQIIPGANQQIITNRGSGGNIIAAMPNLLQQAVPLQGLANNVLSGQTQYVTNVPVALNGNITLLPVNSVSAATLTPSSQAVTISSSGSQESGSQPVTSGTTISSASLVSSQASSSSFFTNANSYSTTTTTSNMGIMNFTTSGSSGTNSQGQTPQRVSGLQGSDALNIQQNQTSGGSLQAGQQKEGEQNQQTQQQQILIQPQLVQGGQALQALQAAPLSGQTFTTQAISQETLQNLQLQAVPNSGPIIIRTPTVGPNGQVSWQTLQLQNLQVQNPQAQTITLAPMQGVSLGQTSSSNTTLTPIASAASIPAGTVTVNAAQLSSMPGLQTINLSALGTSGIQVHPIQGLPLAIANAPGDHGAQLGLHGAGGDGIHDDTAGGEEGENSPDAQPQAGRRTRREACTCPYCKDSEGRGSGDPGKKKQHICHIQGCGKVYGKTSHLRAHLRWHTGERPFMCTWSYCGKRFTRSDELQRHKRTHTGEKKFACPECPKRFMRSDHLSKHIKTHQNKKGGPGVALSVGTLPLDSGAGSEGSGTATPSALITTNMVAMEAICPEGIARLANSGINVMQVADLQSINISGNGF

SGF29-C-D194A (human) = SGF29-C-D194A (human) (UniProt Q96ES7); test: co-sedimentation; pelleting assay: purified His-tagged SGF29-C variants added into soluble nuclear extract in vitro; droplet pellets analysed by western blot; only the target purified
SGF29-C-WT (human) = SGF29-C-WT (human) (UniProt Q96ES7); test: as above
[4] = biological target: Flag-EGFP-SGF29-R207P (human) (UniProt Q96ES7); test: co-IP; anti-Flag M2 affinity gel on lysates in 0.3% CHAPS, 40 mM HEPES pH 7.5, 1 mM EDTA, 120 mM NaCl, 4 °C overnight; elution with Flag peptides; immunoblot of endogenous partners; methods: transfected HEK293T, legend of Fig. 5d: hMPCs; remark: listed apart in the source
[5] = biological target: Flag-EGFP-SGF29-WT (human) (UniProt Q96ES7); test: as above; remark: listed apart in the source

binding [1]: binds
binding [2]: binds
Molecule: ADA3 (from UniProt O75528 1-432)

binding [1]: binds
binding [2]: binds
Molecule: KAT2A (GCN5) (from UniProt Q92830 1-837)

binding [3]: binds
binding (SGF29-C-D194A (human)): binds
binding (SGF29-C-WT (human)): binds
binding [1]: no binding
binding [2]: binds
Molecule: Transcription factor SP1 (from UniProt P08047 1-785)

binding [3]: binds
Molecule: endogenous SGF29 (from UniProt Q96ES7 1-293)

binding (SGF29-C-D194A (human)): binds
binding (SGF29-C-WT (human)): binds
binding [4]: no binding
binding [5]: binds
B1: mediator of RNA polymerase II transcription subunit 4 (MED4) (protein, UniProt Q9NPJ6 1-270)
chain: T1 sequence

— publication PMC10630320
